Measurements published in PubChem BioAssay AID1508624 (National Center for Advancing Translational Sciences (NCATS), 2021).
About 120 (0.25%) of roughly 48,000 compounds were called active. Inconclusive results (about 4%) are left out. The call rests on the fitted dose curve; in most records, active means well fitted activation curve with a large enough effect; inconclusive means small, poorly fitted or top-dose-only effect, or another doubt; inactive means no such curve, though single readings can be large or run the other way. The list shows a part of the results.

Assay: Primary qHTS for Identification of Small Molecule Activators of Huntingtin-Antisense Promoter Activity; further: nearly all actives have a fitted effect of over 55% in size
Details: HEK293 HTT-AS promoter firefly luciferase reporter, 24 h; series mostly up to 57.5 µM; activity change, positive = activation: at the top concentration
Summary of the method: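 Firefly luciferase signal from promoter-reporter HEK293 cells was scaled between vehicle (0%) and zero RLU (-100%). Compounds were tested at final concentrations of up to 57.5 uM over 24 h at 37 degrees C. PTC124 at 50 uM final served as control inhibitor.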

Activity change, positive = activation, inactive:
Cc1ccc(Cn2cc(/C=C(/C#N)C(=O)Nc3cccc(Cl)c3)c3ccccc32)cc1 -28.2%
COc1cc2c(cc1OC)CN(CCc1ccc(NC(=O)c3cc(OC)c(OC)cc3NC(=O)c3cnc4ccccc4c3)cc1)CC2 -38.8%
O=c1cc(-c2ccccc2)nc2cc(-c3ccc(F)cc3)[nH]n12 0.246%
CCC(=O)OCc1cnc(C)c2oc(=O)c(C(=O)Nc3ccccc3C(F)(F)F)cc12 -14.4%
Cc1cccc(N(C)C(=O)CN(C)S(=O)(=O)c2ccc3[nH]c4c(c3c2)CCCC4)c1 -32.9%
COc1cc2ccccc2cc1C(=O)Nc1cc(-c2nc3ccccc3o2)ccc1C 13.9%
COc1cccc(CNC(=O)C(NS(=O)(=O)c2ccc3c(c2)oc(=O)n3C)C(C)C)c1 (stereo not drawn) 0%
Cc1c(C(=O)OCC2CCCCC2)[nH]c2c1C(=O)CC(c1ccc(Cl)cc1)C2 (stereo not drawn) -2.43%
Cc1cccc(NC(=O)CSc2nc(C3CCCC3)nc3c2c(=O)n(C)c(=O)n3C)c1C -8.52%
Cc1nnsc1C(=O)Oc1ccc(C(C)C)cc1 -10.9%
CCN(CC)C(=O)c1sc2c(c1C)c(=O)n(-c1ccc(C)c(C)c1)c(=O)n2Cc1cc(=O)n2c(C)cccc2n1 -25.6%
COc1ccc2c(c1)-c1nc(NC(=O)c3ccccc3F)sc1CC2 2.17%
CCn1c(=O)cc(OCC(=O)NCc2ccccc2Cl)c2ccccc21 -17%
N#Cc1ccccc1Cn1c(=O)n(CCCCC(=O)NCc2ccc3c(c2)OCO3)c(=O)c2ccccc21 -24.3%
Cc1ccc(CNC(=O)c2nc(-c3ccc(Cl)cc3)n3c2CCCCC3)cc1 -9.95% [at 11.5 µM, percent change from vehicle, -100% = no light]
Cc1ccccc1C(=O)Nc1nnc(S(=O)(=O)N(C)Cc2ccc(Cl)cc2)s1 -32.1%
O=C(Cc1ccc(F)cc1)N1CCC(c2nc3c(nnn3Cc3ccc(F)cc3)c(=O)[nH]2)CC1 -20.3%
COc1ccc(OCC(=O)Nc2ccc(O)c(-c3nc4ccccc4s3)c2)cc1 8.58%
CCCn1c(=O)c2sccc2n2c(CCCC(=O)Nc3ccccc3OCC)nnc12 -3.22%
COc1ccc(CC(=O)N2CC(=O)Nc3ccc(Br)cc3C2c2ccc(F)cc2)cc1 (stereo not drawn) -18.4%
Cc1ccc(CN(C(=O)COc2ccc(C(C)C)cc2)C2CCS(=O)(=O)C2)o1 (stereo not drawn) -16.5%
CCCCNc1nc(Oc2ccc(OCCC)nn2)nc(N(C)C)n1 -8.68%
COc1ccc(OC)c(CCNC(=O)CN2C(=O)COc3ccc(S(=O)(=O)N4CCC(C)CC4)cc32)c1 -23.2%
O=C(CCSCc1ccccc1F)N1CCN(c2ccc(Cl)cc2)CC1 -20.8%
CCCN1CCN(CCNC(=O)Nc2cc(C)ccc2OC)CC1 0.838%
COc1cc2c(C(=O)Nc3ccc(C)cc3Br)cn(C)c(=O)c2cc1OC -14.6%
CCOC(=O)c1ccc(NC2=CC(c3ccc(O)c(OCC)c3)N(c3ccc(C(=O)OCC)cc3)C2=O)cc1 (stereo not drawn) -0.895%
CCOc1ccccc1NC(=O)c1sc2nc(-c3ccc(OC)cc3)ccc2c1N 7.56%
CCC1CCCCN1CCCNC(=O)c1c(O)nc2c(C)cccn2c1=O (stereo not drawn) -1.3%
COc1ccc(-n2c(/C=C/c3cccc4ccccc34)nc3ccccc3c2=O)cc1Cl -8.01%
Cc1cccc(N2CCN(C(=O)c3c(C)oc4ncnc(N5CCOCC5)c34)CC2)c1C -7.35%
Nc1cc(=O)nc(SCC(=O)Nc2ccc(F)cc2)n1-c1cccc(Cl)c1 -7.26%
COc1ccc(C)cc1NC(=O)c1cc(S(=O)(=O)N2CCC(C)CC2)cn1C -11.3%
COc1ccc(CCN2C(=O)N(c3ccc(C)cc3)C(=O)C2CC(=O)Nc2ccc(F)cc2)cc1 (stereo not drawn) -27.9%
Cc1nn(C(=O)COc2ccccc2Br)c(C)c1Sc1ccccc1 0%
CCc1ccc(NC(=O)C(NS(=O)(=O)c2cccc3nsnc23)c2ccccc2)cc1 (stereo not drawn) -11.5%
CS(=O)(=O)c1ccc(C2=C(c3ccccc3)C(=O)OC2)cc1 -8.29%
O=C(CSc1n[nH]c(-c2ccccc2)n1)N1CCN(c2ccccc2F)CC1 -20.9%
COc1cccc(NC(=O)c2sc3nc(C)c(C(=O)Nc4ccc(Cl)cc4)c(-c4ccc(Br)cc4)c3c2N)c1 -13.6%
Cn1c(=O)c2[nH]cnc2n(C)c1=O
Cc1cccc(NC(=O)c2sc3nc(-c4ccccc4)cn3c2C)c1C 25.6%
COc1ccc2c(CNCc3ccccc3OC)c(C(=O)O)n(Cc3ccc(F)cc3Cl)c2c1 -0.0964%
CCc1ccc(NC(=O)C2CCC(CNS(=O)(=O)c3ccc4c(c3)C(C)(C)C(=O)N4C)CC2)cc1 (stereo not drawn) -14.1%
Cc1ccc(Cl)cc1NC(=O)N1CCC2(CC1)Oc1ccccc1C(=O)N2Cc1ccccc1F -19.7%
CCS(=O)(=O)N1CC(=O)N(c2cc(C)ccc2C)C(C)(C(=O)NC2CCCCC2)C1 (stereo not drawn) -7.16%
Cc1cccc(NC(=O)C(=O)NCCc2sc(-c3ccccc3)nc2C)c1C 2.47%
Cc1c(Cl)cccc1NC(=O)C(CCS(C)(=O)=O)N1Cc2ccccc2C1=O (stereo not drawn) -4.24%
COc1ccc(-c2cn3c(n2)sc2cc(C(=O)NC4CCCCCC4)ccc23)cc1 5.71%
CC(=O)c1c(C)oc2ccc(N(C(=O)Oc3ccccc3)S(=O)(=O)c3ccccc3)cc12 -35.2%
Cc1ccc(S(=O)(=O)c2c(Nc3cc(C)ccc3C)sc(C(=O)c3ccc4c(c3)OCO4)c2N)cc1 -18.7%
CC(CNC(=O)c1cc(-c2ccccc2)n[nH]1)c1ccccc1 (stereo not drawn) 14.5%
CC1CCCN(c2c(S(=O)(=O)c3ccccc3)cnc3ccc(Cl)cc23)C1 (stereo not drawn) -1.65%
O=C(c1ccc(F)cc1)N1CCC(c2nc(-c3ccc(S(=O)(=O)N4CCCC4)cc3)no2)CC1 -2.86%
C[C@@]12C(=O)OC(=O)[C@@]1(C)C1CCC2O1 -49.2%
COc1ccccc1N(CC(=O)Nc1ccc2c(c1)OCO2)S(=O)(=O)c1ccc(C)cc1 -16.5%
O=C(Cn1cnc2onc(-c3ccc(F)cc3)c2c1=O)Nc1ccc(F)c(Cl)c1 -29.5%
O=C(CN1c2ccccc2S(=O)(=O)c2ccccc21)Nc1ccccc1Cl -27.8%
CCOc1ccc(S(=O)(=O)c2cn(Cc3ccccc3C)c3ccc(OC)cc3c2=O)cc1 -15.5%
CCc1nn(CC(=O)NCCCN2CCN(CC)CC2)c(=O)c2cc3occc3n12 -7.4%
CCCOc1ccc(-c2nonc2NC(=O)c2oc3ccc(Cl)cc3c2C)cc1OCCC 8.07%
O=C(c1ccc2c(c1)N(Cc1c(F)cccc1Cl)C(=O)c1ccccc1S2)N1CCOCC1 -19.3%
Cc1ccc2c(c1)c(CC(=O)Nc1ccc(C)c(F)c1)c(C(=O)O)n2C -24.7%
Cc1ccc2nc(COc3ccccc3NC(=O)c3ccccc3F)cc(=O)n2c1 -1.67%
CCOc1cccc(C2c3[nH]c4ccccc4c3CCN2C(=O)CSCc2ccc(F)cc2)c1 (stereo not drawn) -28.6%
CCc1cccc(NC(=O)C2Cc3ccccc3N2C(=O)c2ccccc2)c1 (stereo not drawn) -31%
NC(=O)Cn1c(=O)n(CCCCCC(=O)NCc2ccc(F)cc2)c(=O)c2sccc21 -0.0765%
O=C(C1COc2ccccc2O1)N(Cc1cccnc1)c1nc2c(Cl)cccc2s1 (stereo not drawn) -8.44%
COc1ccc(OC)c(NC(=O)CSc2ncc3c(n2)-c2ccccc2N(C)S3(=O)=O)c1 15%
CCOC(=O)N1CCN(Cc2nc3cc(NC(=O)C(C)C)ccc3n2C(C)C)CC1 -23.3%
CCCNC(=O)c1ccc(-c2nc(CS(=O)(=O)c3ccc(C)cc3)c(C)o2)cc1 -10.6%
COc1ccc(N(CC(=O)Nc2cccc(C(C)=O)c2)S(=O)(=O)c2ccccc2)c(OC)c1 0%
Cc1cc(OCCCn2c(CCNC(=O)C3CCCCC3)nc3ccccc32)ccc1Cl -45.2%
OCc1cnc(SCc2ccc(F)cc2)n1Cc1ccc(F)cc1 -40.4%
CCOc1ccc(C(=O)N(Cc2cc(OC)c(OC)c(OC)c2)c2ccccn2)cc1 -32.4%
CCOC(=O)C1=C(C)NC(=O)NC1c1cn(-c2ccccc2)nc1-c1ccc(OC(C)C)cc1 (stereo not drawn) -16.3%
O=C(Nc1nc2n(n1)C(c1ccc(Cl)cc1)C=C(c1ccccc1)N2)c1ccco1 (stereo not drawn) -33%
Cc1nn(C)c2c1c(C(F)(F)F)cc(=O)n2C(C)C(=O)NCCc1ccccc1 (stereo not drawn) -17.1%
Cc1ccc(-n2c3c(cc(-c4nc(-c5ccc(Cl)cc5)cs4)c2=O)C(=O)CC(C)(C)C3)cc1C -11.2%
C#CCSc1nc(-c2ccccc2)cc(-c2ccccc2)c1C#N -9.68%
O=S(=O)(c1ccc(-c2cc(C(F)(F)F)on2)s1)N1CCN(c2ccc(F)cc2)CC1 -26%
Cc1ccnc2c1NC(=O)c1cccnc1N2C1CC1
CN(C)CCC=C1c2ccccc2CCc2ccccc21 -17.2%
COc1cc(NS(=O)(=O)c2cc3c(cc2C)N(C)CCO3)cc(OC)c1OC -26%
COc1ccc(NC(=O)C2CCCN(c3ncnc4c3nc3n4CCCCC3)C2)c(OC)c1 (stereo not drawn) 0.261%
Cc1cc(Br)ccc1NC(=O)Cn1cc(S(=O)(=O)N2CCN(c3ccccc3F)CC2)c2ccccc2c1=O -8.44%
Cc1ccc(C)c(N2CCN(C(=O)CCc3nnc4n(CC(C)C)c(=O)c5ccccc5n34)CC2)c1 -1.16%
CCOc1ccc(CNC(=O)c2cnc3sc(N4CCOCC4)nn3c2=O)cc1 -8.34%
CCS(=O)(=O)N1CCc2cc(C(=O)Nc3ccc(C(=O)OC)cc3)ccc21 -27.1%
Cc1ccc(CN2CCc3nc(Nc4ccc5c(c4)OCCO5)ncc3C2)cc1 -2.48%
CCn1cc(C(=O)N2CCN(c3cccc(Cl)c3)CC2)c2cc(OC)c(OC)cc2c1=O -25.9%
CC1=C(c2ccc(C(C)C)cc2)S(=O)(=O)NC1=NCCCN1CCN(c2ccccc2F)CC1 -22.2%
C#C[C@]1(O)CC[C@H]2[C@@H]3CCc4cc(OC5CCCC5)ccc4[C@H]3CC[C@@]21C 1.34%
COc1cccc(C(=O)Nc2cccc(-c3cn4ccsc4n3)c2)c1OC 15%
